The values below come from the supplement of paper PMC9446081.

The structures appear in SMILES notation. Out of some 39,000 compounds screened, about 220 (0.56%) showed activity. Some of the results follow.
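Also: static incubation at 37 °C against the wild-type strain, values averaged over two biological replicates.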

In the assay the test system is Escherichia coli K-12 BW25113. Nature of the assay: relative growth (OD600 normalised to plate interquartile mean) (fraction); higher = less growth inhibition, active = 0.2 or less. Conditions: 50 µM; LB; incubation time: overnight (16-24 h).
As for `C[C@@H]1CN([C@@H](C)CO)C(=O)Cc2cc(NC(=O)Cc3ccccc3)ccc2O[C@H]1CN(C)C(=O)Nc1ccc(C(F)(F)F)cc1`, the relative growth was inactive: 0.976.

For `Cc1ccc(S(=O)(=O)Nc2ccc3c(c2)C(=O)N([C@H](C)CO)C[C@H](C)[C@H](CN(C)Cc2ccc(C(F)(F)F)cc2)OCCCC[C@H](C)O3)cc1`, the relative growth is inactive: 0.94.

For `Cc1cc(OC(=O)c2c(C)cc(O)cc2O)cc(O)c1C(=O)O`, the relative growth was inactive: 0.877.

With `C[C@@H]1CN([C@H](C)CO)C(=O)c2cc(NS(=O)(=O)c3ccc(F)cc3)ccc2O[C@@H](C)CCCCO[C@H]1CN(C)C(=O)Nc1ccc2c(c1)OCO2`, the relative growth is inactive: 1.

For `O=C([O-])c1cc(=O)c2c(OCC(O)COc3cccc4oc(C(=O)[O-])cc(=O)c34)cccc2o1.[Na+].[Na+]`, the relative growth was inactive: 1.09.

Regarding `Cc1cc(N)n(-c2nc(=O)c(C)c(C)[nH]2)n1`, the relative growth is inactive: 0.75.

Consider `COc1cccc(S(=O)(=O)N[C@H]2CC[C@@H](CC(=O)NC3CCC3)O[C@H]2CO)c1`, for which the relative growth is inactive: 1.02.

On to `CCc1nc2ccccc2c(C(=O)Nc2cccc(Cl)c2)c1C`, for which the relative growth was inactive: 1.01.

For the compound `C[C@H]1CN([C@@H](C)CO)S(=O)(=O)c2ccc(C#Cc3ccccc3F)cc2O[C@H]1CN(C)C(=O)c1ccc2c(c1)OCO2`, the relative growth is inactive: 1.06.

For `Cc1noc(C)c1S(=O)(=O)N(C)C[C@H]1Oc2ccc(NS(=O)(=O)c3cn(C)cn3)cc2CC(=O)N([C@H](C)CO)C[C@H]1C`, the relative growth was inactive: 0.972.

With `C[C@H]1CN([C@@H](C)CO)C(=O)Cc2cc(NS(=O)(=O)c3ccc(F)cc3)ccc2O[C@H]1CN(C)S(=O)(=O)c1cn(C)cn1`, the relative growth is inactive: 0.995.

As to `C[C@@H]1CN([C@@H](C)CO)C(=O)c2cc(C#Cc3ccccc3F)cnc2O[C@@H]1CN(C)C(=O)Cc1ccncc1`, the relative growth is inactive: 0.956.

For `C[C@@H]1CN([C@H](C)CO)C(=O)c2cc(C3=CCCCC3)cnc2O[C@@H]1CN(C)S(=O)(=O)c1cn(C)cn1`, the relative growth was inactive: 0.968.

On to `Cc1noc(C)c1NC(=O)Nc1ccc2c(c1)C(=O)N([C@H](C)CO)C[C@H](C)[C@H](CN(C)C(=O)Cc1ccccc1)OCCCC[C@@H](C)O2`, for which the relative growth is inactive: 1.03.

Turning to `C[C@H]1CN([C@@H](C)CO)C(=O)c2cccc(NS(C)(=O)=O)c2O[C@H]1CN(C)C(=O)Nc1ccc(F)cc1`, the relative growth was inactive: 0.979.

On to `Cn1nnnc1SCC(=O)NC(C)(C)C`, for which the relative growth is inactive: 1.02.

Take `O=C(c1cccnc1)N1C[C@H]2[C@@H](c3ccccc31)[C@H](CO)N2C(=O)CN1CCOCC1`: the relative growth is inactive: 1.01.

On to `C[C@@H]1CN([C@@H](C)CO)C(=O)c2cc(NS(C)(=O)=O)ccc2O[C@@H](C)CCCCO[C@H]1CN(C)S(=O)(=O)c1ccc(F)cc1`, for which the relative growth was inactive: 1.02.

Take `CC(C)(O)C#Cc1ccc([C@H]2[C@H](CO)N3CCCCN(S(C)(=O)=O)C[C@@H]23)cc1`: the relative growth is inactive: 1.03.

With `C[C@H]1CN([C@@H](C)CO)C(=O)Cc2cc(NC(=O)NC3CCCCC3)ccc2O[C@@H]1CN(C)Cc1ccc(-c2ccccc2)cc1`, the relative growth was inactive: 0.984.

Consider `C[C@@H]1CCCCO[C@@H](CN(C)S(=O)(=O)c2ccc(F)cc2)[C@@H](C)CN([C@H](C)CO)C(=O)c2cc(NS(=O)(=O)c3cn(C)cn3)ccc2O1`, for which the relative growth was inactive: 1.01.

On to `COCC#Cc1ccc2c(c1)O[C@@H](CN(C)C(=O)C1CCCCC1)[C@H](C)CN([C@H](C)CO)S2(=O)=O`, for which the relative growth is inactive: 0.988.

Regarding `COc1ccc(NC(=O)N(C)C[C@H]2Oc3ccc(NC(=O)CCCCCC(=O)Nc4ccccc4N)cc3CC(=O)N([C@H](C)CO)C[C@H]2C)cc1`, the relative growth was inactive: 0.96.

For the compound `CCOC(=O)[C@H]1C/C=C/C[C@H](C(=O)OCC)C(=O)O[C@H]2[C@@H](OC)O[C@H](CO)[C@@H](OC(=O)Nc3ccc4c(c3)OCO4)[C@@H]2OC1=O`, the relative growth is inactive: 1.05.

In the case of `C[C@@H]1CN([C@H](C)CO)C(=O)c2cc(NS(=O)(=O)c3cccs3)ccc2O[C@@H](C)CCCCO[C@H]1CN(C)Cc1ccc(C(F)(F)F)cc1`, the relative growth was inactive: 1.01.

For `Cc1noc(C)c1NC(=O)N(C)C[C@@H]1Oc2c(NS(=O)(=O)c3cn(C)cn3)cccc2C(=O)N([C@@H](C)CO)C[C@H]1C`, the relative growth was inactive: 0.988.

For the compound `C[C@H]1CN([C@@H](C)CO)C(=O)Cc2cc(NC(=O)NC3CCCCC3)ccc2O[C@H]1CN(C)Cc1ccc(Oc2ccccc2)cc1`, the relative growth was inactive: 1.03.

Take `C[C@H](CO)N1C[C@H](C)[C@@H](CN(C)C(=O)NC2CCCCC2)OCCCC[C@H](C)Oc2ccc(NC(=O)Nc3cccc4ccccc34)cc2C1=O`: the relative growth was inactive: 1.02.

Take `O=C(C[C@H]1C[C@@H]2c3cc(NC(=O)C4CCOCC4)ccc3O[C@@H]2[C@@H](CO)O1)NCCN1CCCCC1`: the relative growth was inactive: 1.01.

As to `C[C@H]1CN([C@@H](C)CO)C(=O)c2cc(NC(=O)Nc3cccc4ccccc34)ccc2O[C@H]1CN(C)C(=O)Nc1cccc2ccccc12`, the relative growth is inactive: 1.02.

Take `C[C@@H]1CCCCO[C@@H](CN(C)C(=O)Nc2ccc(F)cc2)[C@@H](C)CN([C@@H](C)CO)C(=O)c2cc(NC(=O)Cc3ccccc3)ccc2O1`: the relative growth is inactive: 1.05.

With `COc1ccc(S(=O)(=O)N(C)C[C@H]2Oc3ccc(NC(=O)NC(C)C)cc3C(=O)N([C@H](C)CO)C[C@H]2C)cc1`, the relative growth was inactive: 0.99.

Regarding `C[C@H]1[C@@H](c2ccccc2)OC(=O)CC[C@H](O)[C@@H](O)C[C@@H](CC(=O)NCc2ccc(Cl)cc2)C(=O)N1C`, the relative growth was inactive: 0.984.

Consider `CCCCCCC#C[Si](O[C@H](c1ccccc1)c1cn([C@H](C)c2ccccc2)nn1)(C(C)C)C(C)C`, for which the relative growth is inactive: 0.983.

As for `O=C(/C=C/c1cccc(-c2cn(CC(=O)N3CCC4(CC3)C(=O)NCN4c3ccccc3)nn2)c1)NO`, the relative growth was inactive: 1.

As to `Cc1noc(C)c1NC(=O)N[C@H]1C=C[C@@H](CC(=O)N2CCN(C)CC2)O[C@@H]1CO`, the relative growth was inactive: 0.991.

With `Cc1noc(C)c1NC(=O)Nc1ccc2c(c1)C(=O)N([C@H](C)CO)C[C@@H](C)[C@@H](CN(C)S(=O)(=O)c1ccccc1)OCCCC[C@H](C)O2`, the relative growth is inactive: 1.01.

Turning to `COc1cccc(S(=O)(=O)Nc2ccc3c(c2)OC[C@@H](C)N(C(=O)Cc2cccnc2)C[C@H](C)[C@@H](OC)CN(C)C3=O)c1`, the relative growth is inactive: 0.916.

Consider `C[C@H](O)C#Cc1ccc2c(c1)O[C@@H](CN(C)C(=O)c1ccccc1)[C@H](C)CN([C@@H](C)CO)S2(=O)=O`, for which the relative growth was inactive: 0.99.

As for `C[C@@H]1CN([C@@H](C)CO)C(=O)c2cc(N(C)C)ccc2O[C@@H]1CN(C)S(=O)(=O)c1ccc(Cl)cc1`, the relative growth was inactive: 1.03.

As for `C[C@H](CO)N1C[C@H](C)[C@@H](CN(C)S(=O)(=O)c2ccc(Cl)cc2)OCCCC[C@H](C)Oc2ccc(NC(=O)C3CCCCC3)cc2C1=O`, the relative growth is inactive: 1.03.

In the case of `C[C@@H]1CN([C@H](C)CO)C(=O)Cc2cc(NC(=O)CCC(F)(F)F)ccc2O[C@@H]1CN(C)C(=O)Nc1ccc(C(F)(F)F)cc1`, the relative growth was inactive: 1.03.

For `Cc1noc(C)c1NC(=O)Nc1ccc2c(c1)CC(=O)N([C@H](C)CO)C[C@@H](C)[C@H](CN(C)Cc1ccc(C(=O)Nc3ccccc3N)cc1)O2`, the relative growth was inactive: 0.993.

As for `N#CCC12CC3CC(CC(C3)C1)C2`, the relative growth was inactive: 0.984.

As for `C[C@@H]1CN([C@@H](C)CO)C(=O)c2cc(NC(=O)CCN3CCOCC3)ccc2O[C@@H]1CN(C)S(=O)(=O)c1ccc(Cl)cc1`, the relative growth is inactive: 1.01.

Regarding `CC(C)NC(=O)Nc1ccc2c(c1)C(=O)N([C@@H](C)CO)C[C@@H](C)[C@H](CN(C)Cc1ccc3c(c1)OCO3)O2`, the relative growth is inactive: 0.992.

For `C[C@@H]1CN([C@H](C)CO)C(=O)c2cccc(NC(=O)Nc3ccccc3)c2O[C@H]1CN(C)CC1CCCCC1`, the relative growth is inactive: 0.93.

With `C[C@H]1CN([C@@H](C)CO)C(=O)c2cccc(NC(=O)Nc3ccc(F)cc3)c2O[C@@H]1CN(C)S(=O)(=O)c1cn(C)cn1`, the relative growth was inactive: 1.02.

Take `CC(=O)N1[C@@H]2Cn3c(ccc(-c4ccccc4)c3=O)[C@H]1[C@@H](C(=O)NCCCN1CCOCC1)[C@@H]2CO`: the relative growth was inactive: 0.99.

`CN1CCN(CCCN2c3ccccc3Sc3ccc(C(F)(F)F)cc32)CC1.Cl.Cl`: the relative growth was inactive: 1.02.

`COc1ccc(CN(C)C[C@@H]2Oc3c(NC(=O)CCCCCC(=O)Nc4ccccc4N)cccc3C(=O)N([C@H](C)CO)C[C@H]2C)cc1`: the relative growth is inactive: 0.996.

Turning to `CO[C@@H](CN(C)C(=O)C1CCOCC1)[C@H](C)CN(C(=O)Nc1ccc(C(F)(F)F)cc1)[C@@H](C)CO`, the relative growth was inactive: 0.955.

Take `CC(C)N1C[C@@H](C)[C@H](CN(C)Cc2ccc(Oc3ccccc3)cc2)Oc2c(C(=O)O)cccc2C1=O`: the relative growth is inactive: 1.

Regarding `CCCCCCCC(=O)N[C@H](CN1CCCC1)[C@H](O)c1ccc2c(c1)OCCO2`, the relative growth is inactive: 1.01.

Consider `COC(=O)C1=C(C)NC(C)=C(C(=O)OC)C1c1ccccc1[N+](=O)[O-]`, for which the relative growth is inactive: 0.912.

As for `C[C@@H]1CN([C@@H](C)CO)C(=O)c2cc(NC(=O)c3ccncc3)ccc2O[C@H]1CN(C)S(=O)(=O)c1cn(C)cn1`, the relative growth was inactive: 1.03.

In the case of `COc1ccc(S(=O)(=O)N(C)C[C@H]2Oc3c(NS(=O)(=O)c4c(C)noc4C)cccc3C(=O)N([C@H](C)CO)C[C@H]2C)cc1`, the relative growth is inactive: 0.997.

As for `COC12C(COC(N)=O)C3=C(C(=O)C(C)=C(N)C3=O)N1CC1NC12` (centres undefined), the relative growth was active: 0.0503.

Take `COc1ccc(S(=O)(=O)Nc2ccc3c(c2)C(=O)N([C@@H](C)CO)C[C@H](C)[C@H](CN(C)CC2CC2)O3)cc1`: the relative growth is inactive: 0.991.
